Experimental data: PubChem BioAssay AID588855 (National Center for Advancing Translational Sciences (NCATS), 2011)
Out of some 410,000 compounds screened, about 5,000 (1.2%) were called active. This list was built around the results that the source calls inconclusive (neither active nor inactive); the mix of calls is not that of the screen. Calls come from the whole dose curve; as a rule, active = well fitted inhibition curve with a large enough effect; inconclusive = small, poorly fitted or top-dose-only effect; inactive = no such curve, though single readings can be large or run the other way. A potency beside an inconclusive call is a rough fit, not a confirmed value.
% is set by controls: 0 for no effect and ±100 for the full control effect; potency is the fitted concentration of half-maximal effect; tags give direction and shape of the fitted curve.

Test: qHTS for Inhibitors of TGF-b; note: nearly all actives have a fitted effect of over 65% in size
Conditions: HepG2 CAGA-GFP TGF-b/SMAD3 reporter, GFP fluorescence, 18 h, TGF-beta stimulated, 500 pg/mL final; series mostly up to 46.1 µM; activity, negative = inhibition: at the top concentration
Summary of the method: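 HEPG2 CAGA-GFP, 1000 cells/well; 2 h settle, 37 C; cpd via pin tool; TGF-b 500 pg/mL final; 18 h, 37 C; GFP imaging ex488/em500-530; %Activity normalised to -TGF-b and +DMSO controls; CRC fit, curve class.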
In the case of `CCCCNC(=O)Cn1c(=O)cc(C)c2c(C)nn(-c3ccc(CC)cc3)c21`, the Potency is reported as inconclusive: 5.62 µM [inhibitor, partial curve, poor fit]. With `CN(Cc1ccc2c(c1)OCO2)C(=O)c1cc(-c2ccccc2)c(N2CCOCC2)s1` the Potency was inconclusive: 15.8 µM [inhibitor, partial curve, poor fit]. In the case of `O=C(NN1C(=O)c2ccccc2NC1c1ccc([N+](=O)[O-])o1)c1ccc([N+](=O)[O-])cc1` (stereo not given), the Potency is reported as inconclusive: 15.8 µM [inhibitor, single point]. With `CCC(C(=O)NC1CCCC1)n1c2ccccc2c2nc(=O)cc(C)n21` (stereo not given) the “activity, negative = inhibition” value was inactive: -0.449%. With `Cc1nc2ccc3nc(NC(=O)c4ccco4)sc3c2s1` the Potency was inconclusive: 0.891 µM [inhibitor, full curve, poor fit]. For `CC(C)C[C@H]1CNC(=S)N1C[C@H]1CCCN1C[C@H](CC(C)C)N1C[C@H](CC(C)C)N(CCc2ccccc2)C1=S`, the Potency was inconclusive: 7.94 µM [inhibitor, partial curve, poor fit]. In the case of `CCCN1C(=O)SC(CC(=O)Nc2ccc(Br)cc2)C1=O` (stereo not given), the “activity, negative = inhibition” value is reported as inactive: -0.577%. For `Cc1occc1-c1nnc(SCC(=O)Nc2ccccc2N2CCCCC2)n1C`, the “activity, negative = inhibition” value was inactive: -11.4%. In the case of `NS(=O)(=O)c1ccc(Sc2ccccn2)c([N+](=O)[O-])c1`, the “activity, negative = inhibition” value is reported as inactive: 0%. In the case of `CC(C)c1ccc(NC(=O)C2CCN(S(=O)(=O)c3ccc4c(c3)C(C)(C)C(=O)N4C)CC2)cc1`, the Potency is reported as inconclusive: 6.31 µM [inhibitor, single point]. For `CC(=O)NCCNc1nc2c(-c3ccc(C)cc3)nnn2c2ccccc12`, the Potency was inconclusive: 1.41 µM [inhibitor, partial curve]. With `CCN(c1ncnc2c1cnn2-c1cc(Cl)ccc1C)C1CCCCC1` the Potency was inconclusive: 35.5 µM [inhibitor, single point]. For `Cc1cc(NCc2ccc(F)cc2)nc2cc(Cl)ccc12`, the Potency was inconclusive: 35.5 µM [inhibitor, single point]. With `O=C(O)c1cc(Cl)c2c(c1)[C@@H]1C=CC[C@@H]1[C@H](c1ccc(S(=O)(=O)N3CCOCC3)cc1)N2` the Potency was inconclusive: 35.5 µM [inhibitor, single point]. For `COCCCN(C(=S)NC(=O)C(C)(C)C)c1c(N)n(Cc2ccccc2)c(=O)[nH]c1=O`, the “activity, negative = inhibition” value was inactive: 0.422%. With `COc1ccc(NC(=O)CSc2nc(O)cc(=O)n2-c2ccc(OC)cc2)cc1` the “activity, negative = inhibition” value was inactive: 1.54%. In the case of `FC(F)(F)c1cccc(CNC(=S)Nc2ccccc2)c1`, the Potency is reported as inconclusive: 31.6 µM [inhibitor, single point]. In the case of `O=C(O)c1ccc(-n2cc(-c3cc4ccccc4oc3=O)[nH]c2=S)cc1`, the “activity, negative = inhibition” value is reported as inactive: 4.7%. For `Cc1cc([N+](=O)[O-])ccc1NS(=O)(=O)c1ccccc1`, the Potency was inconclusive: 17.8 µM [inhibitor, single point]. For `COc1cccc(-n2cc(C(=O)Oc3cccc(C(F)(F)F)c3)c3ccccc3c2=O)c1`, the “activity, negative = inhibition” value was inactive: 29.8%. For `O=C(Nc1cc(S(=O)(=O)N2CCOCC2)ccc1N1CCOCC1)c1cccc(S(=O)(=O)N2CCCCC2)c1`, the Potency was inconclusive: 35.5 µM [inhibitor, single point]. In the case of `O=C(Nc1ccc2c(c1)OCO2)c1cc(Cl)ccn1`, the Potency is reported as inconclusive: 7.08 µM [inhibitor, partial curve, poor fit]. In the case of `CC1(C)CCSC(/C=C/c2ccccc2)=N1`, the Potency is reported as inconclusive: 35.5 µM [inhibitor, single point]. With `CNc1cc(C(=O)Nc2cccc(OCc3ccccc3)c2)ncn1` the Potency was inconclusive: 35.5 µM [inhibitor, single point]. With `Cc1cccc(CN2CCOCCS2(=O)=O)c1` the Potency was inconclusive: 0.112 µM [inhibitor, full curve, poor fit]. With `COc1ccc(NC(=O)CN2C(=O)NC(C)(c3ccc4c(c3)OCCO4)C2=O)cc1S(N)(=O)=O` (stereo not given) the “activity, negative = inhibition” value was inactive: 0%. With `COc1cc(C(O)c2nc(-c3cc4ccccc4o3)cs2)ccc1F` (stereo not given) the Potency was inconclusive: 17.8 µM [inhibitor, single point]. With `C[C@@H]1C[C@H]2[C@@H]3CCC4=CC(=O)C=C[C@]4(C)[C@@]3(F)C(O)C[C@]2(C)[C@@]1(O)C(=O)CO` (stereo not given in full) the “activity, negative = inhibition” value was inactive: 5.59%. In the case of `CC1(C(=O)N2CC3(CC(c4cccc([N+](=O)[O-])c4)=NO3)C[C@H]2C(=O)NCC(N)=O)CC1` (stereo not given in full), the Potency is reported as inconclusive: 35.5 µM [inhibitor, single point]. For `Cc1ccc(C(=O)/C=C/c2cn(CC(O)CN3CCc4ccccc43)c3ccccc23)cc1` (stereo not given), the Potency was inconclusive: 35.5 µM [inhibitor, single point]. For `CC1(Cc2ccc(OC(F)(F)F)cc2)C(=O)Nc2ccc(S(=O)(=O)NC3CCCCC3)cc21` (stereo not given), the Potency was inconclusive: 7.08 µM [inhibitor, full curve, poor fit]. In the case of `CC1=C(C(=O)Nc2ccccc2C)C(c2ccc(C)o2)NC(=S)N1` (stereo not given), the Potency is reported as inconclusive: 3.16 µM [inhibitor, single point]. For `COc1ccc(-c2noc(COc3cc(C)c(Br)c(C)c3)n2)cc1OC`, the Potency was inconclusive: 10 µM [inhibitor, single point]. In the case of `COc1ccc(S(=O)(=O)N2CC3C4C=CC(C4)C3C2)cc1` (stereo not given), the Potency is reported as inconclusive: 6.31 µM [inhibitor, single point]. For `CCOC(=O)[C@H]1[C@H]2COc3ccc(Cl)cc3[C@@H]2N2C(=O)CN(Cc3ccc(OC)cc3)C(=O)[C@@]12C`, the “activity, negative = inhibition” value was inactive: -2.36%. In the case of `Cc1nc2nc(SCc3c(F)cccc3Cl)nn2c(C)c1Cc1ccccc1`, the Potency is reported as inconclusive: 35.5 µM [inhibitor, partial curve, poor fit]. For `Cc1csc(NC(=O)c2ccccc2)n1`, the “activity, negative = inhibition” value was inactive: -3%. In the case of `Cc1ccc(-c2cc(-c3ccc4c(c3)NC(=O)CO4)nc3c2COc2ccc(C)cc2-3)cc1`, the Potency is reported as inconclusive: 1.26 µM [inhibitor, full curve, poor fit]. For `O=C(/C=C/c1ccccc1)N1CCC(N2CCC(C(=O)N3CCOCC3)CC2)CC1`, the Potency was inconclusive: 0.631 µM [inhibitor, partial curve, poor fit]. In the case of `CCc1nc2sc3c(N4CCC(C)CC4)ncnc3c2c2c1CCCC2`, the Potency is reported as inconclusive: 35.5 µM [inhibitor, single point].
